Source: PubChem BioAssay (NCI)
Where “and” joins values, the source holds several entries; their conditions need not be identical. Equal entries are not always repeated.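 Grown in 96-well plates, cells were treated for 48 hours with each compound at five concentrations. Insufficient inhibition: endpoint recorded as highest concentration tested. At the GI50, growth is halved. Definition used: TGI = concentration required for complete inhibition of growth.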

The compounds below were run on NCI-H322M lung (assay: DTP human tumour cell line panel, 48 h).

Row | Compound | TGI | GI50
1 | COC(CC1(/C=C/O[Si](C(C)C)(C(C)C)C(C)C)C(=O)N(COCC[Si](C)(C)C)c2ccccc21)OC (centres undefined) | > 100 µM | –
2 | Cc1ccc(C2SCC(=O)N2c2ccc(-c3ccc(-n4c(-c5ccccc5)nc5ccccc5c4=O)cc3)cc2)cc1 (centres undefined) | > 100 µM | –
3 | COC(=O)NN1C(C)=C(C(=O)OC)C2(C#N)C(C(=O)OC)=C(C)N(NC(=O)OC)C12N (centres undefined) | > 100 µM | –
4 | CSc1ccc(OCC2OC2O)cc1 (centres undefined) | > 100 µM | –
5 | COC1=C(Br)C(O)C2(C=C1Br)CC(C(=O)NCCCCNC(=O)C1=NOC3(C=C(Br)C(OC)=C(Br)C3O)C1)=NO2 (centres undefined) | > 100 µM | –
6 | CC1=NN2C(c3ccc(C)cc3)=CSC2=NC(C)(C)C1 | > 100 µM | –
7 | COC(=O)c1c2c(cc3c1CC1(C3)Cc3cc4c(c(C(C)=O)c3C1)CCC4)C=CC2 (centres undefined) | > 31.6 µM | –
8 | CC(=O)OC12c3ccccc3-c3ccccc3C1C(C(=O)O)C2(Cl)C(=O)O (centres undefined) | > 10 µM | –
9 | c1ccc(N=c2nc(N3CCOCC3)ss2)cc1 | > 100 µM | –
10 | O=C(CC1(O)C(=O)Nc2ccccc21)c1ccc(F)cc1 (centres undefined) | > 100 µM | –
11 | Cc1cc2c(C(C)C)c(O)c(O)c(C=NCCO)c2c(O)c1-c1c(C)cc2c(C(C)C)c(O)c(O)c(C=NCCO)c2c1O | 15 µM | –
12 | N#CC1(Nc2ccc(-c3ccc(NC4(C#N)CCCC4)cc3)cc2)CCCC1 | > 100 µM | –
13 | C=C(C)C1CC=C(C)CC1 (centres undefined) | > 100 µM and 1820 µM | > 100 µM
14 | COc1cc2nc(-c3ccc(Cl)cc3)cc(OCCCN3CCCC3)c2cc1OC | 17.9 µM | 3.36 µM
15 | c1cc(CSSCc2ccncc2)ccn1 | > 100 µM | –
16 | O=c1cc(N2CCCC2)[nH]c(=O)n1-c1ccc(F)cc1 | > 100 µM | –
17 | CCCCCc1cc[n+](CC(=O)c2ccc([N+](=O)[O-])cc2)cc1 | 63.6 µM | 16.6 µM
18 | CN1C(=O)C(C(N)=O)C2CC1(C)Oc1ccccc12 (centres undefined) | > 100 µM | –
19 | COc1ccc(-c2nc(Nc3ccc(-c4nc5ccccc5[nH]4)cc3)nc(N3CCOCC3)n2)cc1 | > 100 µM | 3.62 µM
20 | CNc1cc2nc3cc(NC)c(C)cc3cc2cc1C | 12.2 µM | 1.03 µM
21 | CN1CC[C@]2(c3cccc(O)c3)CC(=O)/C(=C/c3ccccc3)[C@H]1C2 | 12.5 µM | 3.28 µM
22 | O=C(NNc1ccc(F)cc1)C1CCC(CNS(=O)(=O)c2ccc(Cl)c(Cl)c2)CC1 (centres undefined) | > 50 µM | 9.55 µM
23 | Cc1cc2oc(-c3ccccc3)c(C)c(=O)c2c2c1OC(C)(C)S2 | > 100 µM | –
24 | O=c1c(C2=NCCC2)c(-c2ccc[nH]2)[nH]n1-c1ccccc1 | > 100 µM | –
25 | NS(=O)(=O)c1ccc(NCc2cnc3ccccc3n2)cc1 | > 100 µM | –
26 | COC(=O)NC(=Nc1ccc(Oc2ccccc2)cc1NC=O)NC(=O)OC | > 100 µM | –
27 | CC(=O)Oc1c2c(c(CC=C(C)C)c3c1C(=O)C1=C[C@@H]4CC5C(C)(C)OC(C/C=C(/C)C(=O)O)(C4=O)[C@@]15O3)OC(C)(CCC=C(C)C)C=C2 (some centres undefined) | 1.64 µM | –
